Drawing on the antibiotic and cytotoxicity screens of Wong et al. (2023), this text covers cytotoxicity call and growth inhibition call for 26 compounds.

One test deals with HSkMC. Description: cytotoxicity call (relative viability < 0.9). The note with it: 10 µM.
A further test relates to HepG2. Description: cytotoxicity call (relative viability < 0.9). The note with it: 10 µM.
The next test has as its system S. aureus RN4220. Description: growth inhibition call (relative growth <= 0.2). Particulars: 50 µM.

The other results are listed elsewhere or left out.

`CC(=O)NCCCC[C@@H]1NC(=O)[C@H]2C[C@@H](C(=O)NCCCC[N+](C)(C)C)[C@@H](c3ccc(O)cc3)N2C1=O`: the cytotoxicity call with HSkMC was “inactive”. Besides, the cytotoxicity call in the test on HepG2 was “active”. Moreover, in the test on S. aureus RN4220, the growth inhibition call was “inactive”.

With `Cc1noc(C)c1NC(=O)N(C)C[C@H]1Oc2ccc(NC(=O)Nc3ccc(C(F)(F)F)cc3)cc2CC(=O)N([C@@H](C)CO)C[C@@H]1C`, the cytotoxicity call with HSkMC and in the test on HepG2 was “inactive” each time. For the same compound, in the test with S. aureus RN4220, the growth inhibition call is “inactive”.

`COc1ccc2c3c(n(c2c1)C)[C@@H](CO)N(C[C@]13CN(C1)C(=O)Nc1cccc(c1)F)C(=O)C1CCOCC1`: the cytotoxicity call with HSkMC and in the test on HepG2 was “inactive” in each case. Besides, the growth inhibition call in the test on S. aureus RN4220 is “inactive”.

Consider `C[C@@H]1CCCCO[C@H](CN(C)C(=O)Nc2ccc(C(F)(F)F)cc2)[C@H](C)CN([C@H](C)CO)C(=O)c2cc(NC(=O)C3CCCCC3)ccc2O1`, for which the cytotoxicity call with HSkMC and in the test on HepG2 was “inactive” throughout. Also, the growth inhibition call in the test with S. aureus RN4220 was “inactive”.

In the case of `C[C@@H]1CN([C@@H](C)CO)C(=O)c2cccc(NC(=O)c3ccncc3)c2O[C@@H]1CN(C)Cc1ccc2c(c1)OCO2`, the cytotoxicity call with HSkMC and with HepG2 was “inactive” each time. Besides, the growth inhibition call with S. aureus RN4220 was “inactive”.

In the case of `O=S(=O)(NCC[C@H]1CC[C@H](NS(=O)(=O)c2ccccc2Cl)[C@@H](CO)O1)c1ccc(F)cc1`, in the test with HSkMC, the cytotoxicity call was “inactive”. Besides, the cytotoxicity call with HepG2 was “active”. Also, the growth inhibition call in the test with S. aureus RN4220 was “inactive”.

With `Cc1noc(C)c1NC(=O)Nc1ccc2c(c1)CC(=O)N([C@@H](C)CO)C[C@@H](C)[C@@H](CN(C)Cc1ccc(Oc3ccccc3)cc1)O2`, the cytotoxicity call in the test on HSkMC and in the test with HepG2 was “inactive” in each case. For the same compound, the growth inhibition call in the test on S. aureus RN4220 was “inactive”.

Consider `O=C(C[C@@H]1CC[C@@H]2[C@H](COC[C@@H](O)CN2C(=O)c2ccc(F)cc2)O1)NCCCN1CCOCC1`, for which the cytotoxicity call in the test with HSkMC and in the test on HepG2 was “inactive” each time. In the test with S. aureus RN4220, the growth inhibition call was “inactive”.

Regarding `C[C@H](CO)N1C[C@H](C)[C@H](CN(C)S(=O)(=O)c2ccc(F)cc2)OCCCC[C@H](C)Oc2ccc(NC(=O)Nc3cccc4ccccc34)cc2C1=O`, the cytotoxicity call in the test on HSkMC and in the test with HepG2 was “inactive” in each case. The growth inhibition call in the test with S. aureus RN4220 was “inactive”.

`C[C@@H]1CCCCO[C@H](CN(C)C(=O)Nc2ccc(F)cc2)[C@@H](C)CN([C@@H](C)CO)C(=O)c2cc(NS(=O)(=O)c3ccccc3)ccc2O1`: the cytotoxicity call in the test on HSkMC and in the test on HepG2 was “inactive” in each case. Besides, the growth inhibition call in the test with S. aureus RN4220 is “inactive”.

For `C[C@H](CO)N1C[C@H](C)[C@@H](CN(C)Cc2ccc(Oc3ccccc3)cc2)Oc2ccc(NC(=O)CCC(F)(F)F)cc2C1=O`, the cytotoxicity call with HSkMC and in the test with HepG2 was “inactive” in each case. Besides, the growth inhibition call in the test with S. aureus RN4220 is “inactive”.

As for `C[C@H](CO)N1C[C@H](C)[C@@H](CN(C)C(=O)Nc2ccc(C(F)(F)F)cc2)Oc2ccc(NC(=O)Cc3cn(C)c4ccccc34)cc2CC1=O`, the cytotoxicity call in the test with HSkMC and in the test with HepG2 was “inactive” in each case. In the test with S. aureus RN4220, the growth inhibition call is “inactive”.

With `Cc1ccc(S(=O)(=O)N(C)C[C@H]2Oc3ccc(NC(=O)C4CC4)cc3C(=O)N([C@H](C)CO)C[C@@H]2C)cc1`, the cytotoxicity call in the test with HSkMC and in the test with HepG2 was “inactive” in each case. Also, the growth inhibition call in the test on S. aureus RN4220 was “inactive”.

With `C[C@H](CO)N1C[C@H](C)[C@H](CN(C)C(=O)Nc2ccc3c(c2)OCO3)OCCCC[C@H](C)Oc2ccc(NC(=O)c3ccncc3)cc2C1=O`, the cytotoxicity call in the test on HSkMC and in the test on HepG2 was “inactive” in each case. Also, the growth inhibition call with S. aureus RN4220 was “inactive”.

Consider `CC(C)NC(=O)N(C)C[C@H]1Oc2ccc(NS(=O)(=O)c3cccs3)cc2C(=O)N([C@@H](C)CO)C[C@@H]1C`, for which the cytotoxicity call in the test on HSkMC and with HepG2 was “inactive” each time. For the same compound, the growth inhibition call with S. aureus RN4220 is “inactive”.

With `Cc1noc(C)c1NC(=O)Nc1ccc2c(c1)C(=O)N([C@@H](C)CO)C[C@@H](C)[C@H](CN(C)S(=O)(=O)c1cccs1)OCCCC[C@@H](C)O2`, the cytotoxicity call with HSkMC and in the test with HepG2 was “inactive” throughout. The growth inhibition call with S. aureus RN4220 was “inactive”.

Take `Cc1ccc2cccc(OCCOc3ccccc3C(C)C)c2n1`: the cytotoxicity call in the test on HSkMC and with HepG2 was “inactive” in each case. Also, the growth inhibition call with S. aureus RN4220 was “inactive”.

With `COc1cccc(NC(=O)N[C@@H]2C=C[C@@H](CC(=O)N3CCN(C)CC3)O[C@@H]2CO)c1`, the cytotoxicity call in the test with HSkMC and with HepG2 was “inactive” each time. Besides, the growth inhibition call in the test on S. aureus RN4220 is “inactive”.

Regarding `Cc1c(-c2c(-c3ccc(F)o3)sc3ncnc(O[C@H](Cc4ccccc4OCc4ccnn4CC(F)(F)F)C(=O)O)c23)ccc(OCCN2CCN(C)CC2)c1Cl`, the cytotoxicity call in the test on HSkMC and in the test with HepG2 was “active” in each case. Besides, the growth inhibition call with S. aureus RN4220 is “active”.

`C[C@@H]1CCCCO[C@@H](CN(C)S(=O)(=O)c2cccs2)[C@H](C)CN([C@@H](C)CO)C(=O)c2cc(NS(=O)(=O)c3cn(C)cn3)ccc2O1`: the cytotoxicity call in the test with HSkMC and in the test with HepG2 was “inactive” throughout. Moreover, the growth inhibition call in the test on S. aureus RN4220 was “inactive”.

For the compound `C[C@@H]1CCCCO[C@H](CN(C)C(=O)CCC(F)(F)F)[C@H](C)CN([C@H](C)CO)C(=O)c2cc(NC(=O)CCC(F)(F)F)ccc2O1`, the cytotoxicity call in the test on HSkMC and in the test on HepG2 was “inactive” throughout. Also, the growth inhibition call in the test on S. aureus RN4220 was “inactive”.

With `C[C@@H]1CN([C@@H](C)CO)C(=O)Cc2cc(NC(=O)CCC(F)(F)F)ccc2O[C@H]1CN(C)S(=O)(=O)c1ccccc1`, the cytotoxicity call in the test on HSkMC and with HepG2 was “inactive” throughout. Further, the growth inhibition call in the test with S. aureus RN4220 was “inactive”.

Take `CCCNC(=O)C[C@@H]1CC[C@H]2[C@@H](COc3ccc(NS(=O)(=O)c4ccccc4C)cc3C(=O)N2C)O1`: the cytotoxicity call in the test on HSkMC (human skeletal muscle cells) and in the test with HepG2 was “inactive” throughout. Moreover, in the test on S. aureus RN4220, the growth inhibition call was “inactive”.

On to `CC(C)(C)c1csc(-c2ccc(OC(F)(F)F)cc2)n1`, for which the cytotoxicity call with HSkMC and in the test with HepG2 was “inactive” throughout. For the same compound, the growth inhibition call with S. aureus RN4220 was “inactive”.

For `COc1ccc(NC(=O)Nc2ccc3c(c2)C(=O)N([C@H](C)CO)C[C@@H](C)[C@@H](CN(C)C(=O)Cc2ccccc2)OCCCC[C@H](C)O3)cc1`, the cytotoxicity call in the test with HSkMC and in the test with HepG2 was “inactive” each time. The growth inhibition call with S. aureus RN4220 is “inactive”.

Consider `CCO[C@H]1OC(C(=O)N2CCN(Cc3ccc4c(c3)OCO4)CC2)=C[C@@H](c2ccc(Br)cc2)[C@@H]1CCCOC(=O)NCCCCCC(=O)NO`, for which the cytotoxicity call with HSkMC and in the test with HepG2 was “inactive” in each case. Also, the growth inhibition call in the test with S. aureus RN4220 was “inactive”.
